# Data: PubChem BioAssay (Tox21)
# Inconclusive means that the source gave no clear call. Such entries were picked first, then a sample of the others. Entries that show only a call come without a potency. For some assays here: Where the call is inconclusive, the potency comes from a doubtful curve fit. Activity calls are given as the source filed them. Unless noted, calls come from the whole dose curve; as a rule, active = well fitted cell-killing curve with a large enough effect in the repeat runs; inconclusive = weak or mixed curves, or effect the other way; inactive = no such curve, though single readings can be large or run the other way.
# Legend:
# [1] = target: Glucocorticoid receptor (Homo sapiens) (UniProt P04150); assay: qHTS assay to identify small molecule antagonists of the glucocorticoid receptor (GR) signaling pathway (AID 720692; active = well fitted inhibition curve with a large enough effect in the signal ratio in the repeat runs, not every such curve was filed as active; inconclusive = weak or mixed curves, or effect the other way; inactive = no such curve, though single readings can be large or run the other way; the % refers to the signal ratio); conditions: GR-bla HeLa, beta-lactamase FRET ratio, dexamethasone-stimulated, 18 h; activity change, negative = inhibition: at 58.5 µM (top of the series) unless noted
# Outline: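 GR-bla HeLa cells carrying a GRE-driven beta-lactamase reporter received compound after 4 h plating, then dexamethasone (5 nM final). After 18 h at 37C, the FRET substrate was loaded for 2 h at room temperature and fluorescence read.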
# [2] = qHTS assay for identifying genotoxic compounds that show differential cytotoxicity against isogenic chicken DT40 cell lines with known DNA damage response pathways - Rev3 mutant cell line (AID 743014); conditions: chicken DT40 Rev3-/- viability, CellTiter-Glo, 40 h; activity, negative = cytotoxicity: at 68.4 µM (top of the series) unless noted; note: nearly all actives have a fitted effect of over 55% in size; note: potency is the fitted concentration of half-maximal effect
# [3] = qHTS assay for identifying genotoxic compounds that show differential cytotoxicity against isogenic chicken DT40 cell lines with known DNA damage response pathways - wild type cell line (AID 743012); conditions: DT40 wild type chicken cells viability, CellTiter-Glo, 40 h; activity change, negative = cytotoxicity: at 68.4 µM (top of the series) unless noted; note: potency is the fitted concentration of half-maximal effect; nearly all actives have a fitted effect of over 60% in size
# Outline: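 Wild-type DT40 cells (300/well) exposed to compounds for 40 hours at 37 C/5% CO2. Viability read by CellTiter-Glo luminescence after 30 min at room temperature.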
# [4] = target: Androgen receptor (Homo sapiens) (UniProt P10275); assay: qHTS assay to identify small molecule antagonists of the androgen receptor (AR) signaling pathway (AID 743035; active = well fitted inhibition curve with a large enough effect in the signal ratio in the repeat runs, not every such curve was filed as active; inconclusive = weak or mixed curves, or effect the other way; inactive = no such curve, though single readings can be large or run the other way; the % refers to the signal ratio); conditions: HEK293 AR-UAS-bla, R1881-stimulated, beta-lactamase FRET, 16 h; activity change, negative = inhibition: at 58.5 µM (top of the series) unless noted
# Outline: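 HEK293 cells stably carrying UAS-beta-lactamase reporter, 2,000/well, given compounds plus R1881 agonist and incubated 16 h at 37C. LiveBLAzer B/G FRET substrate then added for 2 h at room temperature before fluorescence reading.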
# Tags give direction and shape of the fitted curve.
# UniProt P04150, sequence (P04150 whole entry, looked up): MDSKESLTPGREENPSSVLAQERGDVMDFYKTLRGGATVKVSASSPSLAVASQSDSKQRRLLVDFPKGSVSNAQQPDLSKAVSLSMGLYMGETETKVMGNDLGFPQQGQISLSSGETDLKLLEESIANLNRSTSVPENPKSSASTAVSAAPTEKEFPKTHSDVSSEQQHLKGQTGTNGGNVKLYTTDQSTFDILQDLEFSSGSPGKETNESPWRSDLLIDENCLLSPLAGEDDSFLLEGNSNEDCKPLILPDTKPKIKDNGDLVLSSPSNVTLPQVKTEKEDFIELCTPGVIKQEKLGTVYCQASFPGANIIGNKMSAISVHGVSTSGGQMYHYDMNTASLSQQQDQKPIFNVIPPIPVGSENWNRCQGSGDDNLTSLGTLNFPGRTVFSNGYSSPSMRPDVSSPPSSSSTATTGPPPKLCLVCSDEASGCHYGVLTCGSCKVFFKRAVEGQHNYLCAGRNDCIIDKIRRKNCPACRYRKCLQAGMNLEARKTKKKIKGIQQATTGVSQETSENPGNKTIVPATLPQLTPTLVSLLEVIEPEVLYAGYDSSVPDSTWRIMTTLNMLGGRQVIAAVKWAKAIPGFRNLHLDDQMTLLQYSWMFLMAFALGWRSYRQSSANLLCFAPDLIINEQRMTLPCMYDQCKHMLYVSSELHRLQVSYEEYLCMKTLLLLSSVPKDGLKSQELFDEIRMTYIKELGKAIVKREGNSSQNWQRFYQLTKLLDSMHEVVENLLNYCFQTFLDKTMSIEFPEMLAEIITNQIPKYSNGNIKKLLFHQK
# UniProt P10275, sequence (P10275 whole entry, looked up): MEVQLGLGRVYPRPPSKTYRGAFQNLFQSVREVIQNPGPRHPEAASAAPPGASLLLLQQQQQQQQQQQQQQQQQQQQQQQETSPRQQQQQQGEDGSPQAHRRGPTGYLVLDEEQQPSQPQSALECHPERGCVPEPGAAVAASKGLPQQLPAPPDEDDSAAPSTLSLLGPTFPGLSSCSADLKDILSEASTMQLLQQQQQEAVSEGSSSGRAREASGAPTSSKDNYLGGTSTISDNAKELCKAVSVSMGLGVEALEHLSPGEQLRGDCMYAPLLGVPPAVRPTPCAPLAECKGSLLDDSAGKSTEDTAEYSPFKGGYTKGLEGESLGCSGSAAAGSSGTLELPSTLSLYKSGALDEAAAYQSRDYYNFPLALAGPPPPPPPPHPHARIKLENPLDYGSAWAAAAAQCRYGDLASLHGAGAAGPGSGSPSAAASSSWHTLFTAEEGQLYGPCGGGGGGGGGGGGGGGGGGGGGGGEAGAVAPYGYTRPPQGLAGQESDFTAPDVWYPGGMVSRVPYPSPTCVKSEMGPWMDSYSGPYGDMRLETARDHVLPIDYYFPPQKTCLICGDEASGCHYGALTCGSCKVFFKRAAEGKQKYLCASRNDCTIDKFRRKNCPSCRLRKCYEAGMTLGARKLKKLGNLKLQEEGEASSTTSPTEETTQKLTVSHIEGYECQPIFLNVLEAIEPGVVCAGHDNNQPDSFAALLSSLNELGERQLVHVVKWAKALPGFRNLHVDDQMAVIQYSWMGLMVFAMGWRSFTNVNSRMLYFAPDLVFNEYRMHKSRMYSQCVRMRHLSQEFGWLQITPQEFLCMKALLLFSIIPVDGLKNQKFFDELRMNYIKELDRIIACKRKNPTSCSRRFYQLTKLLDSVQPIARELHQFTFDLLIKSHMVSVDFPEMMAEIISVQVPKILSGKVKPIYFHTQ
compound,measurement,setting,value
CN(C)C(=O)NC1(c2ccccc2)CCN(CC[C@@]2(c3ccc(F)c(F)c3)CN(C(=O)c3ccccc3)CCO2)CC1,Potency,[1],inactive
same,Potency,[2],active: 25.3 µM
CC(C)c1ccc2c(C(C)C)cc(C(C)C)c(S(=O)(=O)O)c2c1,"activity change, negative = inhibition",[1],inconclusive: -31.7% [at 78.9 µM]
same,Potency,[3],"inconclusive: 1.78 µM [rising, partial curve, poor fit]"
same,Potency,[4],inactive
O=c1oc2c(O)c(O)cc3c(=O)oc4c(O)c(O)cc1c4c23,Potency,[1],inactive
same,Potency,[2],inactive
CC(C)C(=O)OC/C=C/c1ccccc1,Potency,[1],inactive
same,Potency,[2],inactive
C=CCOc1c(Br)cc(Br)cc1Br,"activity change, negative = inhibition",[1],inconclusive: 20.3%
same,Potency,[2],inactive
